The list shows a part of the results.
Tested on: PF3D7_0420300 AP2 domain 1 (GST-tagged)
Experiment: gcPBM binding intensity (ln(normalized median fluorescence intensity)); higher = stronger DNA binding
Summary of the method: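 GST-tagged P. falciparum DNA-binding domains, expressed in E. coli (about 25 μg on average), were applied for 1 h to an Agilent 4 × 180k array of primer-extended double-stranded 36-bp intergenic genomic probes plus negative controls. The binding buffer was 1× PBS with 1% milk, 0.2 mg/ml BSA, 0.5% salmon testes DNA and 0.03% Triton X-100. Bound protein was detected with Alexa488 anti-GST antibody and scanned at 488 nm. Binding intensity is the highest Masliner-normalised natural-log median intensity across replicate spots of either probe orientation.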

Sequence	gcPBM binding intensity (ln)
AAATTGTCTGCATATAGTACATAAATATATTAATAT [XGTACX_site4557]	9.15
ATATATATATATATAGTGCATAATGTTTTAATAGAT	9.33
AAGAAAATAAAATAAAAAAAAAAATAAAAAAAATAA [TGCATGCA_negctrl_site516]	9.26
AACATTTTTAAATATATAAAAATATATATATATATA [XGTACX_negctrl_site551]	8.97
TTATATTTATGATACACACACGTATATTCACATACA [CACACA_site6354]	9.7
TTTTAAAGCATATCATATAAAGAACATGACATAGGA [CACACA_negctrl_site630]	9.22
GTATGTTTAATTTTAGTGCAATTATAAATATTTTAA [GTGCAC_site9531]	9.18
TTGCCATTAATTTATACACACACATTTTAATTTTTT [CACACA_site8150]	9.89
TTGTCATTTATAAAATGTACGTGTGTATATATTTAA [XGTACX_site5000]	9.27
TCAATAGTTACTAGTACATGCAAAAATAAACCTATA [TGCATGCA_site85]	9.34
CAAATATATATGTTCACACATATAATTATTGTGAAA [CACACA_site4190]	9.13
AGTGTGTGTGCGTATAGTACATATACATATATACAC [XGTACX_site6882]	9.78
AAATGAATAAAATTTATTTATAAAAGAAAAATCACA [GTGCAC_negctrl_site225]	9.03
ATAATACAAAATACATGTACAAATATTTTTCATATT [XGTACX_site1721]	9.32
TAGTACACACAAAATACATGCGGGGTTTAATATTTA [TGCATGCA_site576]	9.6
AATTCTTTCATATATTGTACGTATTCCCATAAAATA [XGTACX_site5923]	9.36
AATATCATCAAACGCACACATACATAAATATATTAT [CACACA_site2174]	9.63
GTTCTTTCAAGTTATACACACCAAAAAAAAAAAAAA [CACACA_site7435]	9.12
TGTTATATTTGTGCGTGTACACATTTGAAAAAATAT [XGTACX_site3796]	9.25
TTTCTTTATTTTTTTTTTTTTTTTTTTCCTTTTTTT [TGCATGCA_negctrl_site231]	9.21
AACGGGGCCAAGAAATATAAATAATCAAAACAAAAA [XGTACX_negctrl_site320]	9.17
TGTGCACGCATATACACACACAAATACAATGATAAA [CACACA_site6656]	9.72

Sequence	gcPBM binding intensity (ln)
ATATATAAAATATATTGTACATTAACATATATATTT [XGTACX_site2055]	9.21
GTAATATTATATAGTTGTACTTTTTTTTTATTATAT [XGTACX_site483]	9.35
AAACTTGACGGACACACACACACATATATAAAAAAA [CACACA_site4577]	10
ATATATAAATAAATAGTGCATTTTAATATTTAACGT	9.33
AGTAAAAGAAAGCACACACACATGTATATATGTATG [CACACA_site3858]	9.92
CAATATAAAAAACACACGCACACAAAAAAAAAAAAA [CACACA_site3521]	9.79
TTTAAATATTTTAACACACTCATATTTAGGTTACAA [CACACA_site5685]	9.21
TTTACATATTTATATACACACTTTTGCGTGTCTGGT [CACACA_site4750]	9.42
TCCATATATATTATGTGTACATATTATATATATAAA [XGTACX_site7525]	9.02
TAATCCATAAGAAGCACACACATATAAATATATTTT [CACACA_site6774]	9.79
TATTTAAAGATATATACACACATTTGATATTATTAT [CACACA_site6509]	9.46
CACACGTAAAAGTATAATATAAAAAAGGTATACACT [CACACA_negctrl_site127]	9.42
ACCTACATACATATGTGTACTTATTTGTATTCACTG [XGTACX_site7124]	9.64
ATAATATATGAAAAAACGATTTTTTCATTTTAAATA [XGTACX_negctrl_site146]	9.01
TTTATAAACAAATGAACACACAAACATATTTATATA [CACACA_site7478]	9.69
AAAAAAAAAATTTTCGTGCACATAAGAAAATTTAAA [GTGCAC_site9788]	8.98
ATAGTATATCAAAATTTGTAAATCATTCTCAATAAA [CACACA_negctrl_site430]	8.87
CATACATACAAACACACACACATATAAATACATACA [CACACA_site4625]	10.2
ACATTGTTGGTGTTAGTGCATTGGTAAATATTATAT	9.58
AAAAAAAAAAAAAAAACACACATATCTGTATTTATA [CACACA_site5760]	9.3
AATTATATATAAAAAGTGCAAAACGATAATTCATCA	9.47
AATATATATATATTATGTACACATAGAAATATATTA [XGTACX_site3874]	9.19

Sequence	gcPBM binding intensity (ln)
TCATATTCCAAAAAAAAAAAAAAAAAAAAAAAAATA [CACACA_negctrl_site1293]	8.99
ATGTATTACTTAAATATATGAAACATATTACTTTTA [CACACA_negctrl_site496]	9.11
TTTTAGCTATTTTAATATAATGAAGCAAAAAATAAA [TGCATGCA_negctrl_site576]	8.88
ATAATAAATTCTACGCGTACAAAACCATGAACATTA [XGTACX_site7505]	9.32
CTTTCAAAATTATTTATAGTATCTCATATTTTAGTA [XGTACX_negctrl_site72]	9.07
TTTATTAATAAAAAGGTGCAATCAGGAAAAATTATC [GTGCAC_site9626]	9.35
ACACATATGTATATATGTACTTATATATATATATAT [XGTACX_site8632]	9.31
ATCCTTTATAAATAAGTGCATATAAAAAATAATATT [GTGCAC_site9759]	9.09
AGTCCTTACACATATATTAAATATGTGTATATATAT [XGTACX_negctrl_site336]	9.53
TTTTGTTTAGTGTATTGTACAATATATCTTTATTTT [XGTACX_site5163]	9.56
AAAAAAAAAAAAAAAAGTACATATATATATATAATT [XGTACX_site4437]	9.22
TATTAATACGGACACACACACACACTAGATAAAATA [CACACA_site4295]	10.2
AAACATTTATGAAGGTGTACAAAAATGAATTAAAAA [XGTACX_site7035]	9.32
TATTTAAATACTGACGCATGCATAAGGAGTAATAGT [TGCATGCA_site465]	9.54
TTTTTTTTTTTTTTTTGTACTTATAAAATAACATGT [XGTACX_site134]	8.57
TAATACTTAGAGAAAAGTACGTATGAACTTATGTAA [XGTACX_site5504]	9.12
TATAAAAAAATAATAAAATAATAAAATATATAAATA [TGCATGCA_negctrl_site394]	9.25
TTTTAAAAGGTAAAATGTACATATATAATATATACA [XGTACX_site1222]	9.11
ATTCTATTATCCTTTGCACACAAAATAAATGAAAAA [CACACA_site3030]	9.31
CCTTCCTTGAATTTTACATGCAAAAAATTATAAAAC [TGCATGCA_site663]	8.92
TATATATTATATATTTGTACATATATATAAAAACTT [XGTACX_site449]	9.12
TTATTAAAATATACATTTGAAAGTAATCTTATTTAA [XGTACX_negctrl_site431]	8.77

Sequence	gcPBM binding intensity (ln)
TTTTTTCAATATTATATCCAAAAATATTTGTAAATA [TGCATGCA_negctrl_site596]	8.87
ATTTTTATTTTTTTTGTGCACATTTTCATTTTCTAT [GTGCAC_site9580]	9.65
TTTATAATAAAAAATACATGCAGTTATATATAATAA [TGCATGCA_site654]	9.16
ATATTGAAAATTTGAAGTACATCTAAATATATTATT [XGTACX_site7817]	9.16
ATCCGTGTCTGAAATACACACATGACAATGTGAATG [CACACA_site6556]	9.37
TATATATAAATAAACACACACAAATATAATAAAAAA [CACACA_site3526]	10.1
ATAATGTGTTTGGTATTCTTGATAGATAGTTTTGTG [CACACA_negctrl_site68]	9.52
TAAAAGGATACATATACACACATATATATATATATA [CACACA_site2791]	9.32
ATATTTTTATATAATGAACACACATATTATATCATT [CACACA_site8446]	9.4
TTCTTCAACAAAAAAATAAAAATAAAATAATAAAAA [GTGCAC_negctrl_site619]	9.08
ATAAATCGATAAAATATATGCTACATGAATAAATAA [XGTACX_negctrl_site604]	9.35
TTTAAAAAATTATATTCACACACATACACATATATA [CACACA_site8076]	9.71
AAAATATGTTAATATTGTACTTAAATAAAAAAAATA [XGTACX_site7152]	8.99
ATTCTTAAAATAAAATGTACGAAAAAAAAAAAAAAA [XGTACX_site1657]	8.92
TATATATATATAAACGCATGTAATTTATACACACAT [TGCATGCA_site946]	9.41
ATCTTTCCTTTTGCATGTACATATGGAAATACTTTT [XGTACX_site6995]	9.41
ATAATTAAGTTATGTGTGCACTGTTAAAAATAAATG	9.49
ATACACATAACATATATATATATATATATATATATC [CACACA_negctrl_site278]	9.36
TTTTATGATATTTACACACAAACGTGAGATAGCTCA [CACACA_site2311]	9.28
AATATAATATCTATAATATAAAAAAAACAAAAAAAA [CACACA_negctrl_site875]	9.4
TTTTTTATTTTTTACATATTTAGCTCATATTTATAT [GTGCAC_negctrl_site491]	9.44
AAGGCATGACTATCTGCACACATAAAAATAAGAAAT [CACACA_site8180]	9.52

Source: the supplement of paper PMC11417369
